# Measurements from PubChem BioAssay AID2546 (National Center for Advancing Translational Sciences (NCATS), 2010).
# The whole screen tested about 310,000 compounds, of which about 11,000 (3.5%) were called active. Inconclusive means that the source gave no clear call. Such entries were picked first, then a sample of the others. The call rests on the fitted dose curve; in most records, active means well fitted inhibition curve with a large enough effect; inconclusive means small, poorly fitted or top-dose-only effect, or effect the other way; inactive means flat fitted curve, though single readings scatter. Potencies of inconclusive entries are left out as doubtful fits.
# Assay: VP16 counterscreen qHTS for inhibitors of ROR gamma transcriptional activity;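 further: Gal4-VP16 expression switched on by copper sulfate through the metallothionein promoter; nearly all actives have a fitted effect of over 50% in size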
# Details: Drosophila S2 Gal4-VP16 UAS-luciferase, luminescence, 20 h; series mostly up to 53.6 µM
# Potency means the concentration at half of the fitted maximal effect; tags describe the fitted curve by direction and shape.
row,Compound,Potency
1,N/C(=N\OC(=O)c1ccc2c(c1)OCO2)c1cccc(Br)c1,"inconclusive [inhibitor, single point]"
2,O=C(N/N=C/c1ccccc1Cl)c1[nH]c2ccc(Br)cc2c1-c1ccccc1,"inconclusive [inhibitor, single point]"
3,O=C1c2cccc(OCC(=O)N3N=C(c4cccs4)CC3c3ccc(F)cc3)c2CCN1Cc1cccnc1 (configuration not stated),"inconclusive [inhibitor, partial curve]"
4,C#CCNC(=O)C1=C[C@@H](c2cn(C(C)=O)c3ccccc23)C[C@@H](OCc2ccc(CO)cc2)O1,inactive
5,O=C(Nc1ccc2snnc2c1)Nc1cccc2ccccc12,"inconclusive [inhibitor, single point]"
6,O=C(Cn1nnc(-c2ccccc2F)n1)OCC(=O)c1ccccc1,"inconclusive [inhibitor, partial curve]"
7,O=C(NCc1ccco1)c1cc2cc(Br)ccc2o1,inactive
8,CC(C)(C)c1cc[n+](C2=C([O-])c3ccccc3C(=O)/C2=N\S(=O)(=O)c2cccs2)cc1,active: 8.91 µM
9,CCN1CCN(C(=O)c2cc(COc3ccc4ncccc4c3)on2)CC1,"inconclusive [inhibitor, single point]"
10,COC(=O)Oc1ccc(/C=N/NC(=O)CN(c2ccccc2Cl)S(C)(=O)=O)cc1OC,inactive
11,O=C(Nc1ccncc1)c1cc(F)cc(F)c1,active: 25.1 µM
12,Cc1ccccc1-c1ccc2ncnc(-n3ccnc3)c2c1,active: 12.6 µM
13,COC(=O)[C@@]1(C)CCC[C@@]2(C)c3ccc(O)c(C(C)C)c3CCC21 (some centres not stated),"inconclusive [inhibitor, single point]"
14,Cc1nc(-c2ccc(C(=O)Nc3ccc(F)cc3)cc2)cs1,"inconclusive [inhibitor, single point]"
15,Cc1cc(NC(c2ccc(Cl)cc2)c2ccc3cccnc3c2O)no1 (configuration not stated),active: 2 µM
16,CCCCCSc1nnc2c(n1)OC(c1cccn1C)N(C(C)=O)c1ccccc1-2 (configuration not stated),inactive
17,Cc1ccc(-n2c(-c3ccccc3)c[n+]3c2CCC3)cc1,"inconclusive [inhibitor, single point]"
18,Cc1cccc(CN2CCc3c([nH]c4ccccc34)C2CC(C)C)n1 (configuration not stated),"inconclusive [inhibitor, single point]"
19,CCOC(=O)CSc1ccc(C(=O)Nc2ccc(OC)cc2)cn1,inactive
20,Cc1ccc(NC(=S)Nc2ccc(F)cc2)cc1C,active: 7.08 µM
21,CC1(C)CC(c2nc(-c3ccc([N+](=O)[O-])cc3)cs2)CCO1 (configuration not stated),"inconclusive [inhibitor, single point]"
22,CCOc1cc(/C=C2\N=C(SC(C)C(N)=O)N(c3ccc(OC(F)F)cc3)C2=O)ccc1O (configuration not stated),"inconclusive [inhibitor, single point]"
23,O=c1[nH]nc(Cc2ccc(Cl)cc2Cl)c2ccccc12,"inconclusive [inhibitor, single point]"
24,O=C(c1ccc([N+](=O)[O-])o1)N1CCc2ccccc21,inactive

row,Compound,Potency
1,O=C(NNC(=O)c1cc(-c2ccc(Cl)c(Cl)c2)nc2ccccc12)Nc1ccccc1,"inconclusive [inhibitor, single point]"
2,CCc1cc2cc(C(=O)Nc3ccc(F)cc3)sc2s1,"inconclusive [activator, partial curve]"
3,S=C(NCc1ccc(Cl)cc1)Nc1ccccc1,active: 3.55 µM
4,CN(C)S(=O)(=O)c1ccc(C(=O)Nc2nc(-c3cc4ccccc4o3)cs2)cc1,active: 6.31 µM
5,Cc1cccc(OCC(=O)NCCN2CCOCC2)c1,"inconclusive [inhibitor, single point]"
6,Cn1cccc1/C=N/NC(=O)c1cc(-c2cccs2)nc2ccccc12,"inconclusive [inhibitor, single point]"
7,O=C(/C=C/c1ccc(Cl)cc1)c1cccnc1,active: 20 µM
8,S=c1nccc(-c2cccs2)[nH]1,active: 7.94 µM
9,CCC/C(O)=C1\C(=O)CC(C)(C)CC1=Nc1ccccc1O,"inconclusive [inhibitor, single point]"
10,CC(C)C[C@H](NC(=O)c1nc[nH]c1C(=O)N1CCc2ccccc2C1)C(=O)OCc1ccccc1,"inconclusive [inhibitor, single point]"
11,Cc1ccc2nc(C(O)C(O)c3nc4ccc(C)cc4[nH]3)[nH]c2c1 (configuration not stated),active: 7.94 µM
12,CCN(CC)S(=O)(=O)c1ccc(N2CCN(C)CC2)c(NC(=O)c2cc(=O)c3ccccc3o2)c1,inactive
13,NC(=O)CSc1nnnn1CC(CC(=O)O)c1ccccc1 (configuration not stated),inactive
14,O=C(Nc1ccc2c(c1)OCO2)c1ccc(Cl)c(S(=O)(=O)N2CCOCC2)c1,inactive
15,O=C(Nc1cccnc1)c1cc2c(ccc3ccccc32)o1,"inconclusive [inhibitor, partial curve, poor fit]"
16,Cc1ccc(NC(=O)CN(C)CC(=O)Nc2sc3c(c2C(N)=O)CCC3)cc1,"inconclusive [inhibitor, single point]"
17,O=C(NNC(=O)c1ccccc1OCc1ccccc1Cl)c1csc(N2CCOCC2)n1,"inconclusive [inhibitor, single point]"
18,O=C(NC(=S)Nc1ccccc1[N+](=O)[O-])c1ccccc1Cl,"inconclusive [inhibitor, partial curve]"
19,C/C(=C\C(=O)OCCCCCCCCC(=O)O)C[C@@H]1OCC(C[C@H]2O[C@H]2[C@@H](C)[C@H](C)O)[C@@H](O)[C@H]1O (some centres not stated),inactive
20,Cc1cc2nc(-c3ccc(SCC(=O)Nc4ccc(S(=O)(=O)N5CCCC5)cc4)nc3)[nH]c2cc1C,"inconclusive [inhibitor, single point]"
21,Oc1sc(C=Nc2ccccc2)c2ccccc12,inactive
22,COc1ccccc1OCC(=O)c1[nH]c(C)c(C(C)=O)c1C,"inconclusive [inhibitor, single point]"
23,O=C(NC(=S)Nc1cc(C(F)(F)F)ccc1N1CCOCC1)c1sc2ccccc2c1Cl,active: 3.98 µM
